# Reference: publication PMC8048981, “Cys–Cys and Cys–Lys Stapling of Unprotected Peptides Enabled by Hypervalent Iodine Reagents” (Angewandte Chemie (International Ed. in English), 2021)
# How the values were obtained:
# [1] = target: T1, human MDM2 fused to GST (hMDM2-GST) (Homo sapiens, UniProt Q00987); assay: Direct fluorescence polarization binding assay
# cell = settings: not told; cited from earlier work
# [2] = sequence introduced by Verdine and co-workers; ref [22]; cited from earlier work
# Excerpt: With the reagents in hand, we moved to apply them on a peptide model (Table 1).
# [3] = Circular dichroism measurements (helicity); format: physicochemical; settings: 0.1 mM peptide, 40% TFE/water; average of at least 2 values
# Procedure: To study the changes induced in the peptide conformations, we obtained circular dichroism measurements of the helical linear peptides and the corresponding isolated stapled peptides (Table 2, entries 1–3, 7–10, 16–18, 21–23).
# Figure 2 Circular Dichroism (180–240 nm) spectra of linear (represented by a black line) and stapled peptides. Measured using 0.1 mM 40 % TFE/Water solutions. See Figure S3–6 in Supporting Information for the data of other stapled peptides.
# 16. Circular Dichroism Measurements
# General Procedure for the measurement of CD spectra: The lyophilized solid linear and staple peptides were dissolved in water (bubbled with nitrogen for 30 minutes) to afford a 1 mM solution.
# The 1 mM stock solution was diluted with water and TFE to afford 0.1 mM solutions with 0, 5, 10, 20 and/or 40% TFE. The ellipticity was measured from 260 nM to 180 nM. The data described is the average of at least 2 values. The mean peptide ellipticity [θ] was calculated using equation (1) and plotted against wavelength. […]
# θ: ellipticity [mdeg], C: peptide molar concentration [M], Np: number of peptide units, l: cell path length [cm].10 The linear and staple peptides were compared at the same % of TFE. When possible, the comparison was made at 40% TFE. When HT went over 700 V the data was not considered accurate. For 17a only measurements at 5% TFE provided reliable data over the whole range of wavelengths. For 27a, no change was observed between 5% and 10 % TFA, thus for comparability 26 and 27b are also reported at 5% TFA.
# Table S11: Values of [θ] at 208 and 222 nm at 40% TFE:
# 10 Shepherd, N. E.; Hoang, H. N.; Abbenante, G.; Fairlie, D. P. J. Am. Chem. Soc. 2005, 127, 2974-2983.
# [4] = target: T1, human MDM2 fused to GST (hMDM2-GST); assay: Competition fluorescence polarization assay (displacement of fluorescein-labeled reporter peptide); format: binding; settings: reporter peptide 50 nM, hMDM2-GST 1 M [sic]; peptide 50 M [sic] to 49 nM; phosphate buffer pH 7.4, TCEP, 0.01% Tween-20; 30 min room temperature; average of two independent measurements
# T1 sequence (Q00987 whole entry): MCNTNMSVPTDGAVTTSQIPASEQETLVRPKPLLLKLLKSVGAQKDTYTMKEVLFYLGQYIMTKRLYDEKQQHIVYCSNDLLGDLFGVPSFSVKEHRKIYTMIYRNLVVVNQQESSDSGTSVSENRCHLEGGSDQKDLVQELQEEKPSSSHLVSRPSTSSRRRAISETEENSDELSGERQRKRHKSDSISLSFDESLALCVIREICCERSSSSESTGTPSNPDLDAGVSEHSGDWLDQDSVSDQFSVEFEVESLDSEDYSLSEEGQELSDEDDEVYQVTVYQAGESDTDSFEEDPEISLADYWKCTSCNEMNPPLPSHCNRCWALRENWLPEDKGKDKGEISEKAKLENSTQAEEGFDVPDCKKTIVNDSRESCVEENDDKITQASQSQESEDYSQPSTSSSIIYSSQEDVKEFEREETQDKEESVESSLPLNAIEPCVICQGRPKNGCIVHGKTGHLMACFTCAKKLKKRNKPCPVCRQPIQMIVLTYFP
"mean peptide ellipticity [θ] at 208 nm, 40% TFE [3]","mean peptide ellipticity [θ] at 222 nm, 40% TFE [3]",Compound,"fold higher affinity to MDM2 than the linear peptide ([1]; stapled vs linear fluorescein-labelled peptide, from K d values)",cell permeability vs wild type helical binding domain of p53 (cell),helicity vs wild type helical binding domain of p53 [2],displacement of the fluorescent probe from MDM2 [4],"binding affinity to MDM2 in words ([1]; FP, fluorescein-labelled stapled vs linear peptide)"
,,"CC(C)C[C@@H]1NC(=O)[C@H](CC(C)C)NC(=O)[C@H](CCCNC(=N)N)NC(=O)[C@H](Cc2c[nH]c3ccccc23)NC(=O)[C@H](CC(C)C)NC(=O)[C@H](CC(N)=O)NC(=O)[C@@H](NC(=O)[C@H](Cc2ccccc2)NC(=O)[C@@H](NC(=O)[C@H](CCC(N)=O)NC(=O)[C@H](CCC(N)=O)NC(=O)[C@H](CO)NC(=O)[C@H](CCC(N)=O)NC(=O)c2ccc3c(c2)C(=O)OC32c3ccc(O)cc3Oc3cc(O)ccc32)[C@@H](C)O)CSC#Cc2ccc(cc2)C(=O)NCCCC[C@@H](C(=O)N[C@@H](CCC(N)=O)C(=O)N[C@@H](CC(N)=O)C(N)=O)NC1=O [29 a′] (HELM PEPTIDE1{[O=C1OC2(c3ccc(O)cc3Oc3cc(O)ccc32)c2ccc(C(=O)[*:2])cc21].Q.S.Q.Q.T.F.C.N.L.W.R.L.L.K.Q.N.[am]}|CHEM1{[O=C(c1ccc(C#C[*:1])cc1)[*:2]]}$PEPTIDE1,CHEM1,8:R3-1:R1|PEPTIDE1,CHEM1,15:R3-1:R2$$$V2.0)",12 fold,,,,
-19.5064 10-3 deg cm2 dmol-1,-17.0082 10-3 deg cm2 dmol-1,"Ac-QSQQTFCNLWRLLCQN-NH2 (cysteine pairing not given here) [compound 20, p53-derived linear peptide Ac‐…‐NH2]",,better cell permeability,better cell permeability and helicity,,
-19.7351 10-3 deg cm2 dmol-1,-18.6972 10-3 deg cm2 dmol-1,"p-Ac-QSQQTF(CNLWRLLK)QN-NH2 (sidechain bridge or staple) [29a, Cys-Lys stapled peptide from 28 and para reagent 9a]",,,,efficiently displaced the probe at concentrations close to that of MDM2,enhanced helicity and binding affinity to the MDM2 protein

# Peptide text beside a SMILES is read from it.
